First the molecules themselves.
B1: NEDD4L_Y679 (peptide)
chain: EMFNPYYGLFE
B2: NEFL_Y442_YF (peptide)
chain: RSFPSYFTSHV
B3: NGEF_Y289_A286S_YF (peptide)
chain: SESSFYKSLNL
B4: NEDD4L_Y680 (peptide)
chain: MFNPYYGLFEY
B5: NEDD4L_Y679_YF (peptide)
chain: EMFNPYFGLFE
B6: NFKB2_Y868_D865G (peptide)
chain: KEGSAYGSQSV
B7: NEDD4L_Y680_YF (peptide)
chain: MFNPFYGLFEF
B8: NEFL_Y442_P440L (peptide)
chain: RSFLSYYTSHV
B9: NIPBL_Y195_P192L (peptide)
chain: SHLSSYTTHPQ
B10: NEIL3_Y71_YF (peptide)
chain: SLFNGYVFSGV
B11: NGEF_Y288 (peptide)
chain: TSEASYYKSLN
B12: NGEF_Y289_A286S (peptide)
chain: SESSYYKSLNL
B13: NF1_Y1169 (peptide)
chain: SIGLGYHKDLQ
B14: NEFL_Y443_P440L_YF (peptide)
chain: SFLSFYTSHVQ
B15: NEDD4_Y627_Y627H_YF (peptide)
chain: ILGRTHFVNHE
B16: NELL2_Y350 (peptide)
chain: ERNTVYSSSGV
B17: NF1_Y491_Y491C_YF (peptide)
chain: TRSFKCLLLSM
B18: NEFL_Y443 (peptide)
chain: SFPSYYTSHVQ

The list shows a part of the results. No stated cut-off is given here; in the data, active = 3.2 or more and inactive = the rest. The signal is at background level for most entries.
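Further: displayed peptides selected on beads carrying the immobilized SH2 domain, with library peptides lacking any tyrosine serving as negative controls.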

One assay addresses SHP2 C-SH2 domain E139D. Description: enrichment score (SH2-bound / input frequency) (ratio); bacterial display of known human phosphotyrosine sites (pTyr-Var adds point mutants) read by sequencing; higher = stronger binding; tyrosines were phosphorylated by kinases first. The following applies: peptide library: pTyr-Var.
On to B1, for which the enrichment score was inactive: 1.39.

For B2, the enrichment score was inactive: 1.42.

For the molecule B3, the enrichment score was inactive: 0.654.

For the molecule B4, the enrichment score is inactive: 2.38.

As for B5, the enrichment score is inactive: 1.5.

Consider B6, for which the enrichment score was inactive: 0.579.

Consider B7, for which the enrichment score is active: 3.9.

Regarding B8, the enrichment score is inactive: 1.97.

For B9, the enrichment score was inactive: 0.946.

As for B10, the enrichment score is inactive: 1.2.

Take B11: the enrichment score was inactive: 0.672.

For B12, the enrichment score was inactive: 0.858.

Turning to B13, the enrichment score is inactive: 0.841.

Regarding B14, the enrichment score was inactive: 3.19.

Take B15: the enrichment score is inactive: 1.23.

As to B16, the enrichment score was inactive: 0.64.

As for B17, the enrichment score was inactive: 1.96.

Regarding B18, the enrichment score is inactive: 1.27.

For the next assay, the target named is SHP2 C-SH2 domain wild-type. The description is as above. Particulars: peptide library: pTyr-Var.
As to B1, the enrichment score was inactive: 1.48.

Turning to B2, the enrichment score is inactive: 0.827.

B3: the enrichment score is inactive: 0.944.

For B4, the enrichment score is inactive: 2.18.

B5: the enrichment score is inactive: 1.16.

Regarding B6, the enrichment score was inactive: 0.661.

For the molecule B7, the enrichment score is inactive: 3.09.

B8: the enrichment score was inactive: 1.77.

On to B9, for which the enrichment score is inactive: 1.21.

Regarding B10, the enrichment score is inactive: 1.21.

As to B11, the enrichment score was inactive: 0.577.

Consider B12, for which the enrichment score is inactive: 0.893.

On to B13, for which the enrichment score is inactive: 0.542.

Turning to B14, the enrichment score was inactive: 2.92.

Regarding B15, the enrichment score was inactive: 1.13.

For the molecule B16, the enrichment score is inactive: 0.58.

For the molecule B17, the enrichment score was inactive: 1.92.

In the case of B18, the enrichment score was inactive: 1.19.

The next assay concerns the target SHP2 N-SH2 domain L43F. The description is as above. Particulars: peptide library: pTyr-Var.
For the molecule B1, the enrichment score was inactive: 1.23.

B2: the enrichment score is inactive: 1.48.

Turning to B3, the enrichment score was inactive: 0.771.

In the case of B4, the enrichment score is inactive: 2.38.

With B5, the enrichment score was inactive: 1.29.

As for B6, the enrichment score was inactive: 0.613.

Consider B7, for which the enrichment score is active: 3.95.

With B8, the enrichment score was inactive: 2.79.

In the case of B9, the enrichment score was inactive: 0.984.

For B10, the enrichment score is inactive: 1.04.

B11: the enrichment score is inactive: 0.521.

As to B12, the enrichment score was inactive: 0.724.

Turning to B13, the enrichment score was inactive: 0.708.

As for B14, the enrichment score was inactive: 2.76.

On to B15, for which the enrichment score was inactive: 1.33.

Regarding B16, the enrichment score was inactive: 0.677.

On to B17, for which the enrichment score is inactive: 1.56.

As to B18, the enrichment score was inactive: 1.3.

In a further assay the target is SHP2 N-SH2 domain T42A. The assay is described as above. Particulars: peptide library: pTyr-Var.
Turning to B1, the enrichment score is inactive: 1.32.

In the case of B2, the enrichment score is inactive: 1.17.

Turning to B3, the enrichment score is inactive: 0.561.

Take B4: the enrichment score was inactive: 2.12.

As for B5, the enrichment score is inactive: 1.24.

Regarding B6, the enrichment score is inactive: 0.46.

Consider B7, for which the enrichment score was inactive: 3.12.

On to B8, for which the enrichment score is inactive: 1.8.

For B9, the enrichment score is inactive: 0.7.

On to B10, for which the enrichment score is inactive: 1.15.

For B11, the enrichment score was inactive: 0.509.

B12: the enrichment score is inactive: 1.09.

Take B13: the enrichment score was inactive: 0.573.

Take B14: the enrichment score is inactive: 3.09.

In the case of B15, the enrichment score was inactive: 0.937.

Take B16: the enrichment score is inactive: 0.56.

On to B17, for which the enrichment score is inactive: 1.69.

For B18, the enrichment score was inactive: 0.942.

A further assay addresses SHP2 N-SH2 domain T52S. The description is as above. Particulars: peptide library: pTyr-Var.
With B1, the enrichment score was inactive: 1.33.

B2: the enrichment score is inactive: 1.19.

For the molecule B3, the enrichment score is inactive: 0.64.

Take B4: the enrichment score was inactive: 2.39.

Turning to B5, the enrichment score is inactive: 1.19.

For B6, the enrichment score was inactive: 0.538.

On to B7, for which the enrichment score is active: 4.05.

For B8, the enrichment score is inactive: 2.81.

As to B9, the enrichment score is inactive: 0.808.

For the molecule B10, the enrichment score is inactive: 1.09.

Regarding B11, the enrichment score was inactive: 0.524.

Regarding B12, the enrichment score was inactive: 0.722.

On to B13, for which the enrichment score was inactive: 0.892.

For B14, the enrichment score was inactive: 3.09.

In the case of B15, the enrichment score was inactive: 1.36.

B16: the enrichment score is inactive: 0.654.

Consider B17, for which the enrichment score is inactive: 1.64.

Take B18: the enrichment score was inactive: 1.

For another assay, the target named is SHP2 N-SH2 domain wild-type. Described as above. Particulars: peptide library: pTyr-Var.
B1: the enrichment score was inactive: 1.33.

Turning to B2, the enrichment score is inactive: 0.881.

For B3, the enrichment score was inactive: 0.907.

Consider B4, for which the enrichment score is inactive: 1.94.

In the case of B5, the enrichment score is inactive: 0.901.

In the case of B6, the enrichment score is inactive: 0.437.

Regarding B7, the enrichment score was inactive: 3.07.

As for B8, the enrichment score was inactive: 1.93.

For B9, the enrichment score was inactive: 0.979.

Take B10: the enrichment score is inactive: 0.949.

Regarding B11, the enrichment score was inactive: 0.492.

For B12, the enrichment score is inactive: 0.757.

For the molecule B13, the enrichment score is inactive: 0.899.

For the molecule B14, the enrichment score was inactive: 3.16.

For the molecule B15, the enrichment score is inactive: 0.99.

Turning to B16, the enrichment score is inactive: 0.747.

In the case of B17, the enrichment score is inactive: 1.98.

In the case of B18, the enrichment score is inactive: 1.51.

These data come from the supplement of paper PMC10369915.
